Laboratory results reported in publication PMC4336329 (PLoS ONE, 2015).
About 2,200 (0.71%) of roughly 310,000 compounds showed an effect of 50% or more. Effects have a minus sign here. The list shows a part of the results. Where a SMILES comes first, the peptide text is derived from it. [ ]: non-standard residue; d: D form. The star is where a group is joined. ξ: configuration not given here. Cbz = O=C(OCc1ccccc1)*; ξK = NCCCCC(N)C(=O)O

Target: human ether-à-go-go-related gene (hERG) potassium channel (human, UniProt Q12809)
Sequence (Q12809 whole entry, looked up): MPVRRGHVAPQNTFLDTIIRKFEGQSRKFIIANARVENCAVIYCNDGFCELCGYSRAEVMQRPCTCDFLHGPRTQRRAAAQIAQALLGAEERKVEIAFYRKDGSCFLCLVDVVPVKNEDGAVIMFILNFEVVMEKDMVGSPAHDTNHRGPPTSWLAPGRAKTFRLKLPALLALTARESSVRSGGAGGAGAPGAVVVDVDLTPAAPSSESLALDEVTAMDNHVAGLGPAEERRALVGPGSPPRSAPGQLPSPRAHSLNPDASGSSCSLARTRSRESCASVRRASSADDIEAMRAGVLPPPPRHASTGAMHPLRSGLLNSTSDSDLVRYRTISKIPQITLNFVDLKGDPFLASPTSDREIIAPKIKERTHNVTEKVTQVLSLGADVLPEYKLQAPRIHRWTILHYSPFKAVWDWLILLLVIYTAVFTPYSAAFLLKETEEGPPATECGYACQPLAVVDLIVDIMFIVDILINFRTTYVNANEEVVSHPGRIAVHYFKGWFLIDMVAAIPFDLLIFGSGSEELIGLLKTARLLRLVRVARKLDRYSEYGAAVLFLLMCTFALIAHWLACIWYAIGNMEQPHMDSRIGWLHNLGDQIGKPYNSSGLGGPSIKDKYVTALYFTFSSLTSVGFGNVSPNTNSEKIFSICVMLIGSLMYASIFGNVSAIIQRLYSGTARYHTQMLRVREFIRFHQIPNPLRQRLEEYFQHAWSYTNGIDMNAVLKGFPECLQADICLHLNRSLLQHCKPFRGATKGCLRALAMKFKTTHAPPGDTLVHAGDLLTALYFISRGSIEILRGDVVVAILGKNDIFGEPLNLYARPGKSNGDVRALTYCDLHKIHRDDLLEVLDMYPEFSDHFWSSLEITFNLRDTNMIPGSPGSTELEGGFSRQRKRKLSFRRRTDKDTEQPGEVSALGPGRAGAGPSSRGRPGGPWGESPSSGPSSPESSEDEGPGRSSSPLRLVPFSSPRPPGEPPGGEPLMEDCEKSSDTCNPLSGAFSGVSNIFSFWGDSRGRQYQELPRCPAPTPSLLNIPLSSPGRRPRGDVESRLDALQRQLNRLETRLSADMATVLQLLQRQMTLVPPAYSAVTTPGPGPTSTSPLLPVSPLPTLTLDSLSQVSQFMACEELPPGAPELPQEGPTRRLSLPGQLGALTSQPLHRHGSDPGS
Experiment: primary screen, population patch clamp on CHO cells stably expressing hERG

Row | Structure (SMILES) | hERG current change (%, negative = inhibition) at 1uM
1 | CC(C)Oc1cccc(C(=O)C2CCCN(Cc3ccon3)C2)c1 (stereo not shown) | 5.65%
2 | Cc1cc(C)n(CC(=O)N/N=C/c2ccc([N+](=O)[O-])s2)n1 | 18.5%
3 | Cc1ccc(-c2nn(C)c(=O)c3ccccc23)cc1CNC(=O)/C=C/c1ccccc1 | 2.2%
4 | CNC(=S)NCCc1cc2c(OC)ccc(OC)c2[nH]c1=O | 11.5%
5 | COc1cccc(-c2nc(CS(=O)CC(=O)NCCCOC(C)C)c(C)o2)c1 (stereo not shown) | 6.94%
6 | CC(C)(C)NC(=O)CN1CCCN(C(=O)COc2ccc(Cl)c3ccccc23)CC1 | -4.55%
7 | CCOc1cc(N2CCOCC2)c(OCC)cc1NC(=O)C(C)C | 0.613%
8 | S=c1[nH]nc(COc2ccccc2)n1/N=C/c1ccco1 | 12.4%
9 | CS(=O)(=O)N(CC(=O)NCc1ccncc1)c1cc(Cl)ccc1Cl | 14.6%
10 | CC(C)OC(=O)CSc1nc2ncccc2[nH]1 | 5.34%
11 | O=c1c(-c2ccc(O)cc2)coc2cc(OC3OC(CO)C(O)C(O)C3O)ccc12 (stereo not shown) | 18.4%
12 | COc1ccc(Cl)cc1C(=O)N1CCN=C1SC | 19.4%
13 | COc1ccc(CN(C)C(=O)Cn2ccsc2=N)cc1OC.Cl | 18.6%
14 | CC1=C(C)CC(C(=O)N2CCN(Cc3ccccc3)CC2)C(C(=O)O)C1 (stereo not shown) | 7.43%
15 | COc1ccc2cc(C(C)C(=O)Nc3cccc(S(=O)(=O)N(C)C)c3)ccc2c1 (stereo not shown) | 9.48%
16 | COC(=O)c1sc(S(=O)(=O)N2CCCCC2C(=O)O)c(C(=O)OC)c1C (stereo not shown) | 11%
17 | CCc1ncc(CN2CCCCC2C(=O)Nc2ccc(Oc3ccccc3)nc2)cn1 (stereo not shown) | 3.16%
18 | CCOc1nc(NCc2ccco2)nc(Nc2ccccc2F)n1 | 13.4%
19 | CC(c1nnc(SCC(=O)c2c(N)n(C)c(=O)n(C)c2=O)n1-c1ccc(Cl)cc1)N(C)C (stereo not shown) | 19.1%
20 | O=C(O)C1CC=CCC1C(=O)NCCc1cccc(Cl)c1 (stereo not shown) | 7.36%
21 | Cn1c(=O)c2c(ncn2CC(=O)OCC(=O)NCc2ccccc2Cl)n(C)c1=O | 17.7%
22 | C=CCNc1nc(Nc2ccc([N+](=O)[O-])cc2)nc(N2CCCC2)n1 | 4.66%
23 | Cc1ccc(NC(=O)NNC(=O)CN2C(=O)COc3ccccc32)cc1 | 6.96%

Row | Structure (SMILES) | hERG current change (%, negative = inhibition) at 1uM
24 | CC(C)Cn1c(CNC(=O)c2ccccc2)nc2ccccc21 | 2.27%
25 | NCCCC[C@@H](C(=O)NCCCCCCCCCCC(=O)N1CCNCC1)n1cc(CCO)nn1 | 18.5%
26 | O=C(CCc1nc2ccccc2c(=O)[nH]1)N1CCN(S(=O)(=O)c2ccc(Cl)c(C(F)(F)F)c2)CC1 | -3.59%
27 | O=C(Cn1nnc(-c2cccc(C(F)(F)F)c2)n1)NC(=O)NCc1ccco1 | 14.5%
28 | CCOC(=O)c1c2c([nH]c(=S)c1C#N)CCCC2 | 7.1%
29 | COc1ccc(NC(=O)O/N=C/c2ccc(Br)cc2)cc1 | 33.9%
30 | CC(C)c1ccccc1NC(=O)c1cccnc1 | 9.23%
31 | CC1CC(C)CN(CCCNC(=O)C2CCN(c3nnc(-n4cccc4)s3)CC2)C1 (stereo not shown) | 5.15%
32 | COc1ccccc1C(=O)NCCn1cc(SCC(=O)Nc2cc(C)on2)c2ccccc21 | 3.01%
33 | COC(=O)C(CCCCNC(=O)OCc1ccccc1)NC(=O)CN.Cl (stereo not shown) (H-Gly-[ξK](Cbz)-OMe) | 4.94%
34 | Cn1c(SCC(=O)c2ccccc2)nnc1-c1cccc(N)c1 | 6.25%
35 | CSc1ccc(/C=N/NC(=O)c2cccc(O)c2)cc1 | 11.9%
36 | COC(=O)C1CSC2c3ccccc3C(=O)N12 (stereo not shown) | 10.3%
37 | C=CCNC(=S)Nc1ccc(OC)c(S(=O)(=O)N2CCOCC2)c1 | 11.6%
38 | OC[C@@H](O)[C@@H](O)[C@H](O)[C@@H](O)CO | 7.41%
39 | CCOC(=O)Cn1c(=O)sc2ccccc21 | -3.67%
40 | COc1ccccc1-n1c(SCC(=O)N2CCc3ccccc32)nc2c(c1=O)SCC2 | 10.4%
41 | CCOC(=O)Cc1csc(NC(=O)C(CC(C)C)NC(=O)C2CCCCC2)n1 (stereo not shown) | 8.87%
42 | Cc1cc(=O)oc2cc(NC(=O)c3cccc(S(=O)(=O)N(C)C)c3)ccc12 | 9.55%
43 | CCc1nnc(NC(=O)CN2C(=O)NC3(CCCC3)C2=O)s1 | 4.75%
44 | O=C1CCC(C(=O)N(CCO)Cc2ccccc2)CN1CCCN1CCOCC1 (stereo not shown) | 27.1%
45 | Cc1ccc(N2C(=O)CC(C3CCCO3)C2=O)cc1 (stereo not shown) | 15.9%
46 | CCOC(=O)N/N=C\c1ccc([N+](=O)[O-])o1 | 14.9%

Row | Structure (SMILES) | hERG current change (%, negative = inhibition) at 1uM
47 | CCOC(=O)C(=O)Nc1ccccc1C#N | 10.9%
48 | O=C(Nc1ncc(Cc2cccc(Cl)c2)s1)C1CCCO1 (stereo not shown) | 5.15%
49 | CCCc1nn(C)c(C(=O)Nc2ccc(C(C)(C)C)cc2)c1Cl | 14.7%
50 | O=C(CNC(=O)c1ccco1)Nc1ccc(Br)cc1 | 13.7%
51 | O=C(c1cnn2c(C(F)F)cc(-c3ccccc3)nc12)N1CCc2ccccc21 | 16%
52 | Cc1n[nH]c(=S)n(/N=C/c2cccs2)c1=O | 14.2%
53 | CC(C)CC(NC(N)=O)C(=O)OCC(=O)NC(=O)NC1CCCC1 (stereo not shown) | 13.2%
54 | Cc1cccc(-c2nc3ccc(C(=O)NCCN4CCN(C)CC4)cc3nc2-c2cccc(C)c2)c1 | 16.5%
55 | O=C(c1cccnc1)N1CCN(C(=O)c2cccc(Cl)c2)CC1 | 16.3%
56 | CC(=O)c1ccc[n+](CC(=O)NC(C)c2ccccc2)c1.[Cl-] (stereo not shown) | 18.2%
57 | Cc1ccc(C(=O)CC2(O)C(=O)N(Cc3ccccc3)c3ccccc32)o1 (stereo not shown) | -7.03%
58 | CCOC(=O)c1sc(N/N=C/c2cccc(C)c2)nc1C | 6.98%
59 | COC(=O)c1ccc(-c2ccco2)n1Cc1cc(C)ccc1C | 11.4%
60 | COC(=O)C1=C(N)Oc2c(c(=O)oc3ccccc23)C1c1cccnc1 (stereo not shown) | -11%
61 | CCc1cccc2c(C(=O)C(NCCCOC)c3ccccc3)c[nH]c12 (stereo not shown) | 8.24%
62 | Cc1ccc(OCCNC(=O)CNC(=O)c2ccccc2Cl)cc1 | 10.7%
63 | Cc1ccc(C(=O)C=CNNC(=O)c2ccccc2)cc1 | 0.146%
64 | CC(=O)CN1C(=O)NC(c2ccccc2)(c2ccccc2)C1=O | 16.9%
65 | CC(C)N(Cc1ccccc1)C(=O)COC(=O)c1ccc2ncsc2c1 | 17%
66 | O=C(NC1CCCC1)c1c(O)nc2sccn2c1=O | 6.98%
67 | Cc1ccccc1C(=O)N1CCN(c2ccc(NC(=O)c3ccco3)cc2)CC1 | 2.89%
68 | O=c1oc2ccccc2c(O)c1/C=C1\C=Nc2ccccc21 | 2.66%
69 | Cc1cc(C)c2c(NC(=S)Nc3ccccc3)n[nH]c2n1 | 9.64%

Row | Structure (SMILES) | hERG current change (%, negative = inhibition) at 1uM
70 | C[C@@H]1NS(=O)(=O)[C@H]2C[C@@H]3C=C[C@]2(O3)[C@H]1OC(=O)c1ccccc1Br | 11.5%
71 | CC(/C=C/c1ccccc1F)=N\NC(=O)c1ccc(Cl)cc1 | 9.99%
72 | CCn1c(COc2ccc(C)cc2)nnc1SCc1ccc(C#N)cc1 | -20%
73 | O=C(Nc1c(F)cccc1F)C(c1ccccc1)c1ccccc1 | 12.4%
74 | O=C(NNC(=O)[C@H]1CC=CC[C@H]1C(=O)O)c1ccc(Cl)cc1Cl | 9.02%
75 | Cc1ccccc1OCC(=O)N(CC(C)C)c1c(N)n(CC(C)C)c(=O)[nH]c1=O | -0.652%
76 | CC(C)CCNC(=O)CCCOc1cc(=O)n(C)c2ccccc12 | 10.1%
77 | Cl.Nc1cnn(Cc2ccc(F)cc2)c1 | 10.8%
78 | CN1CCCC(OC(=O)c2ccc(S(=O)(=O)N(C)C)cc2)C1.Cl (stereo not shown) | 12.9%
79 | CC(C)c1onc(C(=O)NC(C)c2ccccc2)c1[N+](=O)[O-] (stereo not shown) | 7.24%
80 | COC(=O)C1C(=O)C2=C(CC1C)NC(=O)CC2c1ccccc1 (stereo not shown) | 7.21%
81 | COc1ccc(-c2csc(N3C(=O)C4C5c6ccccc6C(c6ccccc65)C4C3=O)n2)cc1 (stereo not shown) | 11.9%
82 | N#Cc1ccccc1OCc1nnc(-c2ccccc2Br)o1 | 15.8%
83 | CCSc1ccccc1C(=O)N1CCCC1 | -6.75%
84 | CN(C)C(CNC(=O)C1CCN(S(=O)(=O)c2ccc(Cl)cc2)CC1)c1ccccc1 (stereo not shown) | 3.7%
85 | Cc1c(OCC(=O)NCC(O)c2ccccc2)ccc2c3c(c(=O)oc12)CCC3 (stereo not shown) | 8.98%
86 | Cc1ccnc(Sc2nc3c(c(=O)[nH]c(=O)n3C)n2CCCc2ccccc2)n1 | 12.5%
87 | O=c1[nH]c2ccc(S(=O)(=O)Nc3ccc(Cl)cc3)cc2[nH]1 | 10.4%
88 | O=C(O)C1Cn2c(nc3c(c2=O)C2(CCCC2)Cc2ccccc2-3)S1 (stereo not shown) | 9.78%
89 | Nn1c(COc2cccc(Br)c2)nnc1SCC(=O)NCC1CCCO1 (stereo not shown) | 8.55%
90 | CN1CCN(c2ccc(C(CC(N)=O)NC(=O)c3ccccc3)cc2[N+](=O)[O-])CC1 (stereo not shown) | 13%
91 | COc1ccc(/C=C2\C(=O)NC(=S)N2C(=O)c2ccc(C)cc2)cc1 | 11%
